Measured values from PubChem BioAssay AID686979 (National Center for Advancing Translational Sciences (NCATS), 2013).
“And” between values parts separate entries of the source, which are not always exact repeats. Identical values can stand only once. In all, about 420,000 compounds went through this assay and about 50,000 (12%) were called active. Inconclusive means that the source gave no clear call. Such entries were picked first, then a sample of the others. Calls follow the shape of the dose curve; as a rule, active = well fitted inhibition curve with a large enough effect; inconclusive = small, poorly fitted or top-dose-only effect; inactive = flat fitted curve, though single readings scatter. Potencies of inconclusive entries are doubtful fits and often do not repeat.

Test: qHTS for Inhibitors of human tyrosyl-DNA phosphodiesterase 1 (TDP1): qHTS in cells in presence of CPT; also: nearly all actives have a fitted effect of over 55% in size
Conditions: chicken DT40 Tdp1-/-;hTDP1 cells + 20 nM CPT, ATP luminescence, 48 h; series mostly up to 46.2 µM
Outline: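 Chicken DT40 Tdp1-/- cells stably complemented with human TDP1 were seeded at 400 cells/well in medium containing 20 nM camptothecin, exposed to pin-transferred compounds, and grown at 37 °C for at least 48 hr. Viability was read as ATP luminescence.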
Potency is read from the fitted curve at half-maximal effect; tags tell the direction and shape of the fitted curve.

SMILES | Potency
CCN(C(=O)CN1C(=O)/C(=C/c2ccccc2F)SC1=S)C1CCS(=O)(=O)C1 (configuration not stated) | inconclusive: 18.4 µM [inhibitor, single point]
O=C(Cn1c(=O)n(Cc2nc(-c3ccccc3)no2)c(=O)c2cc3c(cc21)OCO3)Nc1ccc(Cl)cc1 | inconclusive: 25.9 µM [inhibitor, single point]
CC(c1ccccc1)C1CC(=O)N(Cc2ccco2)C1=O (configuration not stated) | inconclusive: 18.4 µM [inhibitor, single point]
Cc1ccc(S(=O)(=O)N2CCCc3ccccc32)cc1C | active: 11.6 µM
Cc1cc(NCCC(C)C)n2nc(C)c(-c3ccccc3)c2n1 | inconclusive: 29.1 µM [inhibitor, single point]
Cc1ccc(NC(=O)c2ccc(S(=O)(=O)NCc3cccnc3)cc2)c(C)c1 | inactive
O=C(CCN1C(=O)C2C3C=CC(C3)C2C1=O)N1CCN(c2ccc([N+](=O)[O-])cc2)CC1 (configuration not stated) | inconclusive: 29.1 µM [inhibitor, single point]
COc1cc(CC(=O)N2c3ccccc3N=C(c3ccccc3)C2C(=O)NCc2ccccc2)cc(OC)c1 (configuration not stated) | inconclusive: 29.1 µM [inhibitor, single point]
COc1ccc2[nH]c(C)c(CCNC(=S)Nc3cccc(C)c3C)c2c1 | inconclusive: 29.1 µM [inhibitor, single point]
CN(C1CCCCC1)S(=O)(=O)c1ccc(C(=O)N2CCN(c3nc4ccccc4s3)CC2)cc1 | active: 23.1 µM
OCc1ccccc1OCCOc1ccc(Cl)c2cccnc12 | inconclusive: 29.1 µM [inhibitor, single point]
COc1cccc(OCc2cc(/C=N/NC(=O)c3ccn[nH]3)ccc2OC)c1 | inconclusive: 18.4 µM [inhibitor, single point]
CCc1cc(=O)oc2cc(C)cc(OCC(=O)N[C@@H](CSCc3ccccc3)C(=O)O)c12 | inactive
COCCCN1C(=O)c2ccc(C(=O)Nc3ccccc3OC)cc2C1=O | inactive
COc1ccc(C(=S)N2CCN(C)CC2)cc1 | inactive
NC(c1ccccc1)c1csc(NC(=O)Nc2cccc(C(F)(F)F)c2)n1 (configuration not stated) | inconclusive: 29.1 µM [inhibitor, single point]
Cc1cc(C)n(C(=O)CNC(=O)c2ccc(C(C)(C)C)cc2)n1 | inactive
Nc1ccc(N=Nc2ccccc2)cc1[N+](=O)[O-] | inactive
CCN(CC)CCCNC(=O)c1c(C)oc2ncn(CC(C)C)c(=O)c12 | inactive
Cc1cc(C)c(S(=O)(=O)N2CCN(C(=O)CCn3nc(C)c(C)c3C)CC2)c(C)c1 | inactive
COc1cccc(-c2nc3nc(C)cc(C)n3c2Nc2c(C)cccc2C)c1 | inconclusive: 20.6 µM [inhibitor, single point]
O=C(c1ccccc1)N1CCN(c2cc(-c3ccccc3)nc3cc(-c4cccc(Cl)c4)nn23)CC1 | active: 23.1 µM
Clc1ccc(Cn2ncc3c(N4CCOCC4)ncnc32)cc1 | inconclusive: 29.1 µM [inhibitor, single point]
CCOc1ccc(-n2c(=O)c3c(C)c(C)sc3n(CC(=O)c3ccccc3)c2=O)cc1 | active: 13 µM

SMILES | Potency
CCCC(=O)NC(c1ccc2c(c1)OCO2)c1cc(Cl)c2cccnc2c1O (configuration not stated) | active: 4.61 µM
CCOC(=O)C1CCN(CC(=O)Nc2cc(C)nn2-c2nc3ccccc3s2)CC1 | inconclusive: 6.51 µM [inhibitor, partial curve]
Cc1ccc2c(c1)-c1c(ssc1=S)C(C)(C)N2C(=O)CSc1nncn1C | inconclusive: 14.6 µM [inhibitor, partial curve]
O=C(NCc1ccc(C(F)(F)F)cc1)c1ccc(-c2ccc(F)c(F)c2)c2ccoc12 | inconclusive: 29.1 µM [inhibitor, single point]
N#Cc1cccc(-c2ccc3ncnc(NCc4cccnc4)c3c2)c1 | inactive
CCS(=O)(=O)NCCc1csc(C)n1 | inactive
CN(CCOc1ccccc1)C(=O)c1ccc(OC2CCN(C(=O)C3CC3)CC2)cc1 | inconclusive: 29.1 µM [inhibitor, single point]
O=S(O)CNc1ccc(S(=O)(=O)c2ccc(NCS(=O)O)cc2)cc1 | inactive
C=CCOc1cccn2c(N(C=O)Cc3ccc(OC)cc3)c(CC)nc12 | active: 18.4 µM
CN(C)c1ccc(NC(=O)CCSc2nc(-c3ccco3)cc(C(F)(F)F)n2)cc1 | inconclusive: 16.4 µM [inhibitor, single point]
Cc1ccc(C(=O)NCCC2=CCCCC2)cc1S(=O)(=O)N1CCOCC1 | inconclusive: 20.6 µM [inhibitor, partial curve]
CCc1cc(N2CCOCC2)cc2c1[nH]c1ccccc12 | inconclusive: 32.6 µM [inhibitor, partial curve, poor fit]
CCn1c(=O)n(CC)c2cc(N3CCCC3)c(NC(=O)c3cc(Br)ccc3OC)cc21 | inconclusive: 16.4 µM [inhibitor, single point]
Cc1csc(NC(=O)CSc2nc3[nH]c(=O)cc(O)c3s2)n1 | active: 20.6 µM
Cc1ccc(C)c(C(=O)CCC(=O)Nc2ccc(N3CCN(C)CC3)cc2C)c1 | inconclusive: 29.1 µM [inhibitor, single point]
O=C(C1CCN(S(=O)(=O)c2ccccc2)CC1)N1CCN(c2ccccc2)CC1 | inconclusive: 7.31 µM [inhibitor, single point]
Fc1ccccc1/C=C/c1ccc2ccccc2n1 | inconclusive: 14.6 µM [inhibitor, single point]
CC1CC(C)CN(c2nc(NCc3ccco3)nc(N)c2[N+](=O)[O-])C1 (configuration not stated) | active: 16.4 µM
CCCCN1CNC(=S)N(Cc2ccccc2)C1 | inactive
COc1ccccc1-n1cnc2cc(C(=O)NC3CCCC3)ccc21 | inconclusive: 29.1 µM [inhibitor, single point]
O=C(COC(=O)/C=C/c1cccc(C(F)(F)F)c1)NC(=O)NC1CCCC1 | inactive
CC1CCc2c(sc(NC(=O)CCCOc3ccc(C(C)(C)C)cc3)c2C(N)=O)C1 (configuration not stated) | inconclusive: 3.26 µM [inhibitor, partial curve]
C=CCOc1ccc2c(c1)c(S(=O)(=O)c1ccc(C)cc1)cn2COC | inconclusive: 29.1 µM [inhibitor, single point]
Cc1ccccc1Cn1c(C(C)O)nc2ccccc21 (configuration not stated) | inconclusive: 16.4 µM [inhibitor, single point]

SMILES | Potency
COc1ccc(N(CC(=O)Nc2ccccc2C)S(=O)(=O)c2ccccc2[N+](=O)[O-])c(OC)c1 | inconclusive: 29.1 µM [inhibitor, single point]
Cn1cc(CN2CCN(c3ccc(Cl)cn3)CC2)c(-c2ccccc2F)n1 | inconclusive: 29.1 µM [inhibitor, single point]
O=c1c2ccccc2nc2n1CC/C2=C/N1CCN(c2cccc(C(F)(F)F)c2)CC1 | active: 18.4 µM
Cc1cc(C(=O)NC2CCCc3c2cnn3-c2cccc(C)c2C)no1 (configuration not stated) | active: 20.6 µM
Cc1[nH]c2ccccc2c1/C=C/c1cc[n+](C)cc1 | active: 0.651 µM
Cc1c(C)n(Cc2ccccc2)c2ncnc(NCCCO)c12 | inactive
O=c1c2ccccc2nnn1CSc1nnc(-c2cccs2)n1Cc1ccccc1 | active: 29.1 µM
Cc1cc(C(F)(F)F)n2nc(-c3cnn(C)c3C(F)(F)F)c(Br)c2n1 | inconclusive: 25.9 µM [inhibitor, single point]
COCCCNCCCOc1ccc(Cl)cc1Br | active: 25.9 µM
Cc1cc(=O)nc2c3ccccc3n(C(C)C(=O)NCCC(C)C)n12 (configuration not stated) | inconclusive: 29.1 µM [inhibitor, single point]
Cc1ccc(C(=O)Oc2cccc(NC(=O)c3cccs3)c2)cc1S(=O)(=O)N1CCOCC1 | inconclusive: 23.1 µM [inhibitor, single point]
CCCc1[nH]c2ccc(C(=O)OC)cc2c1CCC | inconclusive: 29.1 µM [inhibitor, single point]
COc1cc(CNCC(C)C)cc(Br)c1OCC(=O)Nc1ccccc1 | inconclusive: 18.4 µM [inhibitor, single point]
COCCCNC(=O)c1cc2c(=O)n3cccc(C)c3nc2s1 | inconclusive: 23.1 µM [inhibitor, single point] and inconclusive: 4.61 µM [inhibitor, single point]
Clc1ccc(CSc2nc3ccncc3[nH]2)cc1 | inconclusive: 29.1 µM [inhibitor, single point]
CC(C)NC(=O)c1ccccc1-c1ccccc1 | inactive
Cn1cc(CN2CCCC(C(=O)Nc3ccc(-c4cccc(F)c4)cc3)C2)cn1 (configuration not stated) | active: 20.6 µM
O=C(CSC(=S)N1CCOCC1)N1N=CCC1c1ccccc1 (configuration not stated) | inactive
COCCN1C(=O)N(c2cccc(C)c2)C(=O)C1CC(=O)Nc1cc(OC)cc(OC)c1 (configuration not stated) | inactive
CCCCCCCCOC(=O)/C=C/c1c(C)[nH]c(=O)[nH]c1=O | inconclusive: 13 µM [inhibitor, partial curve]
OC(c1ccccc1)(c1nc(-c2cccc(C(F)(F)F)c2)cs1)C(F)(F)F (configuration not stated) | inconclusive: 20.6 µM [inhibitor, single point]
CCCCc1nc2ccccc2n2c(-c3ccc(C)cc3)c3c(=O)n(C)c(=O)n(C)c3c12 | inconclusive: 25.9 µM [inhibitor, partial curve]
CC(=O)Nc1ccc(N(CC(=O)NC2CCCCC2)C(=O)Cn2nnc(-c3ccccc3)n2)cc1 | inactive
COc1cccc(-c2cc3nc(NCc4ccc5occc5c4)n(C)c(=O)c3s2)c1 | inactive
